This is one part of the list.
Experiments:
Experiment in all cases: glycan array binding signal (z-score within array); higher = stronger binding
Details in all cases: glycan notation: IUPAC condensed, linker removed
[1] = molecular target: Neu5Ac(a2-3)Gal(b1-4)GlcNAc(b1-3)[Neu5Ac(a2-3)Gal(b1-4)GlcNAc(b1-6)]GalNAc
How it was run: (§1)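 Glycan array binding is given as a within-array Z-score, which can be read as non-binding when negative. The arrays, 3228 of them, came from the Consortium for Functional Glycomics database and were retained only where the protein sequence was available. Z-scores were averaged across arrays of the same protein sequence at different concentrations or buffers and across linkers.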

[2] = molecular target: Neu5Ac(a2-3)Gal(b1-4)GlcNAc(b1-6)GalNAc
How it was run: as §1

[3] = molecular target: Neu5Ac(a2-3)Gal(b1-4)GlcNAc(b1-6)[Gal(b1-3)]GalNAc
How it was run: as §1

[4] = molecular target: Neu5Ac(a2-3)Gal(b1-4)GlcNAc(b1-6)[Neu5Ac(a2-3)Gal(b1-3)]GalNAc
How it was run: as §1

[5] = molecular target: Neu5Ac(a2-3)Gal(b1-4)GlcNAc6S
How it was run: as §1

[6] = molecular target: Neu5Ac(a2-3)Gal(b1-4)[Fuc(a1-3)]GlcNAc
How it was run: as §1

[7] = molecular target: Neu5Ac(a2-3)Gal(b1-4)[Fuc(a1-3)]GlcNAc(b1-2)Man
How it was run: as §1

[8] = molecular target: Neu5Ac(a2-3)Gal(b1-4)[Fuc(a1-3)]GlcNAc(b1-3)Gal
How it was run: as §1

[9] = molecular target: Neu5Ac(a2-3)Gal(b1-4)[Fuc(a1-3)]GlcNAc(b1-3)Gal(b1-4)GlcNAc
How it was run: as §1

[10] = molecular target: Neu5Ac(a2-3)Gal(b1-4)[Fuc(a1-3)]GlcNAc(b1-3)Gal(b1-4)[Fuc(a1-3)]GlcNAc(b1-3)Gal(b1-4)[Fuc(a1-3)]GlcNAc
How it was run: as §1

[11] = molecular target: Neu5Ac(a2-3)Gal(b1-4)[Fuc(a1-3)]GlcNAc(b1-3)GalNAc
How it was run: as §1

[12] = molecular target: Neu5Ac(a2-3)Gal(b1-4)[Fuc(a1-3)]GlcNAc(b1-6)[Gal(b1-3)]GalNAc
How it was run: as §1

[13] = molecular target: Neu5Ac(a2-3)Gal(b1-4)[Fuc(a1-3)]GlcNAc(b1-6)[Neu5Ac(a2-3)Gal(b1-3)]GalNAc
How it was run: as §1

[14] = molecular target: Neu5Ac(a2-3)Gal(b1-4)[Fuc(a1-3)]GlcNAc6S
How it was run: as §1

[15] = molecular target: Neu5Ac(a2-3)Gal6S(b1-4)GlcNAc
How it was run: as §1

[16] = molecular target: Neu5Ac(a2-3)Gal6S(b1-4)[Fuc(a1-3)]GlcNAc
How it was run: as §1

Neu5Ac(a2-3)GalNAc = molecular target: Neu5Ac(a2-3)GalNAc
How it was run: as §1

[17] = molecular target: Neu5Ac(a2-3)GalNAc(b1-4)GlcNAc
How it was run: as §1

[18] = molecular target: Neu5Ac(a2-3)[GalNAc(b1-4)]Gal(b1-4)Glc
How it was run: as §1

[19] = molecular target: Neu5Ac(a2-3)[GalNAc(b1-4)]Gal(b1-4)GlcNAc
How it was run: as §1

[20] = molecular target: Neu5Ac(a2-3)[GalNAc(b1-4)]Gal(b1-4)GlcNAc(b1-3)GalNAc
How it was run: as §1

[21] = molecular target: Neu5Ac(a2-3)[Neu5Ac(a2-6)]GalNAc
How it was run: as §1

Neu5Ac(a2-6)Gal = molecular target: Neu5Ac(a2-6)Gal
How it was run: as §1

[22] = molecular target: Neu5Ac(a2-6)Gal(b1-3)GlcNAc(b1-3)[Gal(b1-4)GlcNAc(b1-6)]Gal(b1-4)Glc
How it was run: as §1

Neu5Ac(a2-6)Gal(b1-4)Glc = molecular target: Neu5Ac(a2-6)Gal(b1-4)Glc
How it was run: as §1

[23] = molecular target: Neu5Ac(a2-6)Gal(b1-4)GlcNAc
How it was run: as §1

[24] = molecular target: Neu5Ac(a2-6)Gal(b1-4)GlcNAc(b1-2)Man
How it was run: as §1

[25] = molecular target: Neu5Ac(a2-6)Gal(b1-4)GlcNAc(b1-2)Man(a1-3)Man(b1-4)GlcNAc(b1-4)GlcNAc
How it was run: as §1

[26] = molecular target: Neu5Ac(a2-6)Gal(b1-4)GlcNAc(b1-2)Man(a1-3)[Gal(b1-4)GlcNAc(b1-2)Man(a1-6)]Man(b1-4)GlcNAc(b1-4)GlcNAc
How it was run: as §1

[27] = molecular target: Neu5Ac(a2-6)Gal(b1-4)GlcNAc(b1-2)Man(a1-3)[GlcNAc(b1-2)Man(a1-6)]Man(b1-4)GlcNAc(b1-4)GlcNAc
How it was run: as §1

[28] = molecular target: Neu5Ac(a2-6)Gal(b1-4)GlcNAc(b1-2)Man(a1-3)[GlcNAc(b1-4)][Neu5Ac(a2-6)Gal(b1-4)GlcNAc(b1-2)Man(a1-6)]Man(b1-4)GlcNAc(b1-4)GlcNAc
How it was run: as §1

B1: NKR-PIC (Mus musculus) (protein)
chain: GTGQKPSREKCCVFIQENLNKTTDCSVNLECPQDWLLHRDKCFHVSQVSNTWEEGQADCGRKGATLLLIQDQEELRFLLDSIKEKYNSFWIGLRFTLPDMNWKWINGTTFNSDVLKITGVTENGSCASILGDKVTPESCASDNRWICQKELNHETPSNDSGT
With B1 as the binder, how does the “glycan array binding signal (z-score)” value [1] read?
The value was -0.35.

What about the “glycan array binding signal (z-score)” value [2] of the same binder?
The value was -0.363.

And the “glycan array binding signal (z-score)” value [3]?
Its value is -0.393.

And the “glycan array binding signal (z-score)” value [4]?
The value was -0.339.

What about the “glycan array binding signal (z-score)” value [5] of the same binder?
Its value is -0.21.

What about the “glycan array binding signal (z-score)” value [6] of the same binder?
Its value is -0.275.

What about the “glycan array binding signal (z-score)” value [7] of the same binder?
Its value is -0.375.

And the “glycan array binding signal (z-score)” value [8]?
The value was -0.239.

What about the “glycan array binding signal (z-score)” value [9] of the same binder?
The value was -0.176.

What about the “glycan array binding signal (z-score)” value [10] of the same binder?
The value was -0.253.

What about the “glycan array binding signal (z-score)” value [11] of the same binder?
Its value is -0.211.

What about the “glycan array binding signal (z-score)” value [12] of the same binder?
Its value is -0.305.

What about the “glycan array binding signal (z-score)” value [13] of the same binder?
Its value is -0.328.

What about the “glycan array binding signal (z-score)” value [14] of the same binder?
Its value is -0.29.

What about the “glycan array binding signal (z-score)” value [15] of the same binder?
Its value is -0.253.

And the “glycan array binding signal (z-score)” value [16]?
The value was -0.391.

And the “glycan array binding signal (z-score)” value (Neu5Ac(a2-3)GalNAc)?
The value was -0.388.

What about the “glycan array binding signal (z-score)” value [17] of the same binder?
The value was -0.289.

What about the “glycan array binding signal (z-score)” value [18] of the same binder?
The value was -0.289.

What about the “glycan array binding signal (z-score)” value [19] of the same binder?
The value was -0.391.

What about the “glycan array binding signal (z-score)” value [20] of the same binder?
Its value is -0.362.

What about the “glycan array binding signal (z-score)” value [21] of the same binder?
Its value is -0.358.

And the “glycan array binding signal (z-score)” value (Neu5Ac(a2-6)Gal)?
Its value is -0.258.

What about the “glycan array binding signal (z-score)” value [22] of the same binder?
The value was -0.262.

What about the “glycan array binding signal (z-score)” value (Neu5Ac(a2-6)Gal(b1-4)Glc) of the same binder?
The value was -0.292.

And the “glycan array binding signal (z-score)” value [23]?
Its value is -0.335.

And the “glycan array binding signal (z-score)” value [24]?
The value was -0.298.

What about the “glycan array binding signal (z-score)” value [25] of the same binder?
Its value is -0.251.

What about the “glycan array binding signal (z-score)” value [26] of the same binder?
The value was -0.178.

And the “glycan array binding signal (z-score)” value [27]?
Its value is -0.338.

And the “glycan array binding signal (z-score)” value [28]?
The value was -0.24.

Source: the supplement of paper PMC8728848
